In all, about 48,000 compounds went through this assay and about 120 (0.25%) were called active. Roughly 4% stayed inconclusive and do not appear here. The call rests on the fitted dose curve; in most records, active means well fitted activation curve with a large enough effect; inconclusive means small, poorly fitted or top-dose-only effect, or another doubt; inactive means no such curve, though single readings can be large or run the other way. The list shows a part of the results.
Assay: Primary qHTS for Identification of Small Molecule Activators of Huntingtin-Antisense Promoter Activity; further: nearly all actives have a fitted effect of over 55% in size
Conditions: HEK293 HTT-AS promoter firefly luciferase reporter, 24 h; series mostly up to 57.5 µM; activity change, positive = activation: at the top concentration
Summary of the method: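 Luminescence was read after Dual-Glo reagent and a 10 min room-temperature incubation. Values were normalized to vehicle (0% activity) and zero RLU (-100% activity). Reporter HEK293 cells had been exposed to compounds (up to 57.5 uM final) for 24 h.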

Activity change, positive = activation, inactive:
Cc1cccc(NC(=O)CSc2nc(C)c(Cc3ccccc3)c(=O)[nH]2)c1 -23.3%, C[C@@H]1CN(c2c(F)c(N)c3c(=O)c(C(=O)O)cn(C4CC4)c3c2F)C[C@H](C)N1, Nc1nc(-c2nn(Cc3ccccc3F)c3ncccc23)nc(N)c1N1CCOCC1 -17.4%, COc1ccccc1N1CCN(C(=O)c2c3c(nc4ccccc24)C(=O)N(C2CCCCC2)C3)CC1 -7.22%, COc1ccc(-c2nc(CNS(=O)(=O)c3ccc(F)cc3)cs2)cc1 -27.9%, Cc1ccc(C)c(N2CCN(C(=O)c3c4c(nc5ccccc35)C(=O)N(C3CCCCC3)C4)CC2)c1 -20.9%, O=C(CSc1nc2c(c(=O)[nH]1)CN(Cc1ccc3c(c1)OCO3)CC2)Nc1ccc(F)cc1 -3.08%, O=C(N/N=C/c1ccccc1O)c1ccncc1 -16%, CCCOc1cccc(C(=O)Nc2ccc(-c3nc4ccccc4o3)cc2)c1 -14.7%, COc1cc(OC)cc(-n2c(=O)c3ccccc3n(CC(=O)NCCc3ccc(OC)c(OC)c3)c2=O)c1 5.42%, COc1ccc2cc(CNc3ccc(OC)c(OC)c3)c(=O)n(CC(=O)Nc3ccc(C)cc3)c2c1 -9.1%, CCc1ccc(NC(=O)c2ccc(CN3C(=O)C(C)=C(c4ccc(C)cc4)S3(=O)=O)cc2)cc1 -32.9%, COc1ccc(-c2onc(C)c2C)cc1S(=O)(=O)N1CCC(C)CC1 -47.4%, COc1cccc(-c2nc(C(N)=O)c3c(n2)n(-c2ccc4c(c2)OCO4)c(=O)n3C)c1OC -18.5%, Cn1c(C(=O)NCc2cccc(F)c2)cc2cc(S(=O)(=O)N3CCCCC3)ccc21 -35.6%, CSc1nc2c([nH]c3ccccc32)c(=O)n1-c1ccc(F)cc1 -28.8%, O=C(Cn1cc(S(=O)(=O)Cc2ccc(F)cc2)c2ccccc21)NCc1ccccc1 -24%, COc1ccccc1CCNC(=O)c1cccn1-c1nnc(N2CCCCC2)s1 -13.3%, CCOc1ccccc1NC(=O)CSc1cc(=O)n(CC)c2ccccc12 -28.4%, CCOc1ccc(-c2cc(C(F)(F)F)c(C#N)c(SCC(=O)Nc3ccccc3)n2)cc1 -10.3%, CC(=O)c1cc(-c2ccccc2)n(CCC(=O)Nc2cc(C)cc(C)c2)c1C -38.5%, C=CCc1ccc(OCc2ccc(C(=O)Nc3ccc(NC(C)=O)cc3)o2)c(OC)c1 -80.9%, COc1cccc(NC(=O)Cn2cc(C(=O)c3ccc(F)cc3)c(=O)c3cc(OC)ccc32)c1 -17.4%, Cc1cccc(Cn2cnc3c(oc4ccccc43)c2=O)c1 1.28%, CCc1oc2ccccc2c1C(=O)c1cc(I)c(O)c(I)c1 -25.5%, COc1ccc(-c2c(C)nn3c(N4CCN(c5ccccc5F)CC4)cc(C)nc23)cc1OC -14%, Cc1ccc(NS(=O)(=O)c2ccc3[nH]c4c(c3c2)CCCCCC4)cc1 -26%, Cc1cc(C)cc(NC(=O)N2CCC(CN3CCc4ccccc4C3)CC2)c1 -12%, CCC(=O)N1CCc2cc(CNS(=O)(=O)c3ccc(Br)s3)ccc21 -16.5%, N#Cc1ccc(NC2=NS(=O)(=O)c3ccccc32)cc1 25.9%, CCN1CCN(C(c2ccccc2F)c2c(O)cc(C)n(CCOC)c2=O)CC1 (stereo not given) 4.48%, CCCN(CCC)CCNC(=O)c1sc2nc3n(c(=O)c2c1C)CCCCC3 -3.33%, COc1ccc(-n2c(C)nc3cc(C(=O)NC4CCCCCC4)ccc32)cc1 -20.2%, Cc1ccc(C)c(N2C(=O)N(C)c3ccccc3S2(=O)=O)c1 -24.7%, COC(=O)c1c(NC(=O)c2nc(SCc3ccccc3C)ncc2Cl)sc2c1CCCC2 0.532%, CC1CCCN(S(=O)(=O)c2ccc(N3CCCCS3(=O)=O)cc2)C1 (stereo not given) -11.4%, O=c1cc(-c2ccc(F)cc2)nc(SCc2nc(-c3cccc(C(F)(F)F)c3)no2)[nH]1 -2.59%, Cc1c(C(=O)N(Cc2cccc(F)c2)C2CCS(=O)(=O)C2)oc2cc(Br)ccc12 (stereo not given) -35.4%, COc1ccc(NC(=O)CN2C(=O)C3(SCC(=O)N3c3ccccc3)c3ccccc32)cc1Cl (stereo not given) -27.5%, COc1ccc(CNC(=O)c2cccc(N3CCCS3(=O)=O)c2)cc1OC -91.5%, Cc1ccc(C(C)C)cc2c(C)ccc1-2 -0.0225%, CC(C)c1ccc(NC(=O)c2ccc(Cn3nc(N4CCN(c5ccccc5)CC4)ccc3=O)o2)cc1 -41.2%, O=C(Cn1ncn2nc(-c3cccs3)cc2c1=O)NCc1ccccc1Cl 0.0399%, CCc1ccc(N2C(=O)CSC23C(=O)N(Cc2cccc(OC)c2)c2ccccc23)cc1 (stereo not given) -37.4%, CCn1c(=NC(=O)c2ccc(S(=O)(=O)N3CCCC3)cc2)sc2cc(Br)ccc21 -15%, CC(C)=CCC/C(C)=C/CC/C(C)=C/CCC(=O)OC/C=C(\C)CCC=C(C)C 4.18%, CCOC(=O)c1c(C)c(-c2ccccc2)n(CC(=O)NC2CCCCCC2)c1C -3.36%, O=C(NCc1ccc(F)cc1)c1ccc(Cn2c(SCc3ccc(F)cc3)nc3cccnc32)cc1 -8.47%, CC(C)Cn1c(=O)c2ccccc2n2c(CCC(=O)NCc3ccc(Cl)cc3)nnc12 -11%, CCN(CCCNC(=O)c1cc2cc3ccc(OC)cc3nc2s1)c1cccc(C)c1 1.97%, CC(C)(C)NC(=O)[C@H]1CN(Cc2cccnc2)CCN1C[C@@H](O)C[C@@H](Cc1ccccc1)C(=O)N[C@H]1c2ccccc2C[C@H]1O -20.4%, CCCN1C(=O)c2[nH]nc(-c3cccc(OC)c3)c2C1c1ccccn1 (stereo not given) -20.8%, Cn1nnc2c(NCc3ccccc3)ncnc21 14.1%, Cc1cc(C)cc(-n2c(C)nc3cc(C(=O)NCc4ccc(F)cc4)ccc32)c1 -27.8%, CCC(C)NC(=O)c1ccc2c(c1)N(Cc1ccccc1F)C(=O)c1ccccc1S2=O (stereo not given) -13.9%, Cc1cc(C)cc(NC(=O)c2cnn(-c3ccc(C)c(C)c3)c2C2CCNCC2)c1 -18.5%, O=C(CCC(=O)N1CCSc2ccccc21)NCc1ccccc1Cl -13.2%, CCOc1ccc(CCNC(=O)c2cn(-c3cccc(OC)c3)c(=O)c3ccccc23)cc1 -11.5%, Cc1cccc(Nc2cc(Cl)nc(SCC(=O)O)n2)c1C -7.32%, CCCCn1c(=N)c(C(=O)NC2CCCCC2)cc2c(=O)n3cccc(C)c3nc21 12.4% [at 11.5 µM, percent change from vehicle, -100% = no light]
